Results from patent US20240132603A1 (HARBOUR BIOMED US, published 2024).
Blank lines part the entries; values can stand above or below the binder they belong to.

Assays:
human CCR8 [1] = biological target: T1, human CCR8 (human, UniProt P51685 1-355); assay: FACS on CHO-K1 cells overexpressing human CCR8
T1 construct: whole, on cells; construct used for the overexpressing cell lines is not described; also called hCCR8
Protocol: (§1) Cells overexpressing human CCR8 were digested with pancreatin, counted and resuspended to a cell density of 1E6 cells/mL. The cell suspension was added to a 96-well V-bottom plate at 100 μL/well and centrifuged at 300 g for 5 min, and the supernatant was discarded. The anti-CCR8 antibodies provided herein was used as a primary antibody and diluted in a 5-fold gradient with an FACS buffer (DPBS containing 2% FBS) from 200 nM. The diluted primary antibody was added at 100 μL/well to resuspend the cells, and the mixture was incubated at 4° C. for 1 h. The plate was washed twice with DPBS and centrifuged at 300×g for 5 min, and the supernatant was discarded. The secondary antibody diluted in a 1:1000 ratio with an FACS buffer was added at 100 μL/well to suspend the cells, and the mixture was incubated at 4° C. for 40 min. The plate was washed twice with DPBS and centrifuged at 300×g for 5 min, and the supernatant was discarded. DPBS was added at 200 μL/well to suspend the cells, and the mixture was loaded on an FACS machine for analysis.

human CCR8 [2] = biological target: T1, human CCR8; assay: FACS, CHO-K1-hCCR8 cells
T1 sequence (P51685 whole entry): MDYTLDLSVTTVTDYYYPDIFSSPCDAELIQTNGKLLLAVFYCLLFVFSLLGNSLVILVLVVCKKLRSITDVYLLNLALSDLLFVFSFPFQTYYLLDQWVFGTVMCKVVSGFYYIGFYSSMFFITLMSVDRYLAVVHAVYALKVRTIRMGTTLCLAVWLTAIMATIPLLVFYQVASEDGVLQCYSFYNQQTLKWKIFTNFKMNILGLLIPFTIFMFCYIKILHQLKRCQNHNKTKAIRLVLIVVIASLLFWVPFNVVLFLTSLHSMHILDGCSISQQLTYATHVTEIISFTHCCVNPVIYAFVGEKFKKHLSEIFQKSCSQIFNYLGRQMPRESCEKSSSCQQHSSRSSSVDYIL
Protocol: as §1

B1: PR004974 (antibody, human IgG1, kappa)
heavy: QITLKESGPTLVKPTQTLTLTCTFSGFSLSTSGVGVGWIRQPPGKALEWLALIYWNDDKRYSPSLKSRLTITKDTSKNQVVLTMTNMDPVDTATYYCAHRRLRYSGRYYYYYGTDVWGQGTTVTVSS[human IgG1 constant region cut from this listing]
light: EIVMTQSPATLSVSPGERATLSCRASQSVSSNLVWYQQKPGQAPRLLIYGASIRATGIPARFSGSGSGTEFTLTISSLQSEDFAVYYCQQYNNWPYTFGQGTKLEIKRTVAAPSVFIFPPSDEQLKSGTASVVCLLNNFYPREAKVQWKVDNALQSGNSQESVTEQDSKDSTYSLSSTLTLSKADYEKHKVYACEVTHQGLSSPVTKSFNRGEC
notes: fully human, from single cell clone screening
- EC50 (read off the curve) (human CCR8 [1]): ~0.4 nM

B3: PR005124 (antibody, human IgG1, kappa)
heavy: QVQLVESGGGVVQPGRSLRLSCVASGFTFSSYGMHWVRQAPGKGLEWVAVIWHDGSNIFYADSVKGRFTISRDNSKNTLYLQMNSLRAEDTAVYWCARHRRSDYWYYGMDVWGQGTTVTVSS[human IgG1 constant region cut from this listing]
light: [about 100 residues cut from this listing][about 120 residues cut from this listing]
notes: fully human, human IgG1 constant region
- EC50 (human CCR8 [2]): 2.52 nM

Continued, values first:

- EC50 (read off the curve) (human CCR8 [1]): ~0.1 nM
B2: PR005293 (antibody, human IgG1, kappa)
heavy: QITLKESGPTLVKPTQTLTLTCTFSGFSLSTSGVGVGWIRQPPGKALEWLALIYWNDDKRYSPSLKSRLTITKDTSKNQVVLTMTNMDPVDTATYYCAHRRLRYSGRYYYYYGTDVWGQGTTVTVSSASTKGPSVFPLAPSSKSTSGGTAALGCLVKDYFPEPVTVSWNSGALTSGVHTFPAVLQSSGLYSLSSVVTVPSSSLGTQTYICNVNHKPSNTKVDKKV[human IgG1 Fc with changes cut from this listing]
light: B1 light
notes: fully human; same VH/VL as PR004974, other heavy chain entry

- EC50 (human CCR8 [2]): 2.19 nM
B4: PR005127 (antibody, human IgG1, kappa)
heavy: QVQLVESGGGVVQPGRSLRLSCVASGFTFSSYGMHWVRQAPGKGLEWVAVIWHDGSNIFYADSVKGRFTISRDNSKNTLYLQMNSLRAEDTAVYWCARHRRSDYWYYGMDVWGQGTTVTVSSASTKGPSVFPLAPSSKSTSGGTAALGCLVKDYFPEPVTVSWNSGALTSGVHTFPAVLQSSGLYSLSSVVTVPSSSLGTQTYICNVNHKPSNTKVDKKV[human IgG1 Fc with changes cut from this listing]
light: [about 100 residues cut from this listing][about 120 residues cut from this listing]
notes: fully human; same VH/VL as PR005124, other heavy chain entry
